# Source: ChEMBL document CHEMBL4888484, “Replenishing the malaria drug discovery pipeline: Screening and hit evaluation of the MMV Hit Generation Library 1 (HGL1) against asexual blood stage Plasmodium falciparum ,using a nano luciferase reporter read-out” (2022)
# In all, about 150,000 compounds went through this assay and about 540 (0.36%) showed an effect of 50% or more. The list shows a part of the results.
# Test system: Plasmodium falciparum
# Test: Primary screen in NF54 nanoGlo assay, in single point, at 2uM, 72h; a lower Z score goes with more inhibition
# Assay type: functional, Erythrocyte
# Conditions: timepoint 72 hour
Structure (SMILES),% Inhibition [%],Z score
CN1C[C@@H]2CC[C@H]1CN(S(=O)(=O)c1ccccc1OC(F)(F)F)C2,-2,0.29
CC(c1ccccc1)N1C(=O)c2ccccc2C1c1c[nH]c2ccccc12 (stereo not drawn),43,-5.38
COc1ccc(-c2cc(C(=O)Nc3ccc(N(C)C)cc3)no2)c(F)c1,-13,1.65
O=C(Nc1cccc(C(F)(F)F)c1)c1nscc1NCc1ccncc1,-8,1.04
O=C(NCc1cccnc1)c1coc(CN(Cc2ccccc2F)CC2CC2)n1,-9,1.54
CC(C)n1cnc(C(=O)OCCn2cccn2)c1,7,-0.81
CN1C[C@@H](c2nc(-c3cc(OC(F)F)ccc3F)no2)NCC1=O,-7,1.2
COc1ccc(C(=O)N2C[C@H]3CC[C@@H](C2)N(CC2CC2)C3=O)c(OC)c1,-4,0.5
CC[C@@H](CNc1ccc(C(N)=O)nn1)Oc1cccc(F)c1,-7,0.75
COCCN1CC[C@@]2(CCC1=O)CN(c1ccc(C(C)=O)cn1)CCN2C,-6,0.87
COc1cncc(O[C@H]2CCN(S(=O)(=O)c3ccc(OC)c(OC)c3)C2)n1,-8,0.89
Cc1ccc(Oc2nc(N3CCC(C)CC3)nc3c2CN(C(=O)c2cccc(C#N)c2)CC3)cc1,-9,1.37
COC(=O)[C@@H](c1cccc(O)c1)N(C)Cc1nnnn1C(C)(C)C,-11,0.97
CCc1[nH]nc(NC(=O)[C@H]2CC(=O)N(c3ccccc3)C2)c1C,-7,0.6
Cc1cccc(C(C)(C)CN[C@H]2CCCS(=O)(=O)C2)c1,-14,2.07
Nc1[nH]cnc2nc(N3CCN(C(=O)c4ccccc4)CC3)nc1-2,-15,2.79
CO[C@@H]1CO[C@H]2[C@@H]1OC[C@@H]2Nc1nccc(-c2ccc3c(c2)OCO3)n1,-2,0.19
CC[C@]1(O)CCN(C(=O)c2nn(-c3cccc(F)c3)c3c2CCCC3)C1,-9,1.01
FC(F)(F)c1ccc(NCC2(n3cccn3)CC2)nn1,5,-0.74
O=c1c2cnccc2ncn1CC1(CO)CCC1,-1,0.19
CCN1CCCN(C(=O)CCc2c[nH]c3ccccc23)CC1=O,4,-0.39
O=C(CCc1nc(-c2ccc(S(=O)(=O)N3CCOCC3)cc2)no1)Nc1nccs1,-3,0.41
C[C@H](NCCOc1ccccc1Cl)C1CCS(=O)(=O)CC1,-7,0.78
N[C@H]1C[C@H](c2cc(N3CCN(Cc4cccs4)CC3)nc(C3CC3)n2)C1,4,-0.7
O=C(Nc1ccc(C2CC2)c(F)c1)N1CCN(C(=O)c2cccc(F)c2)CC1,-8,0.98
Fc1cccc(-c2n[nH]cc2-c2nc3c(cnn3Cc3cccs3)[nH]2)c1,-11,1.57
Cc1n[nH]c(C)c1CNC(=O)c1cc2c(s1)N(C)CCCC2,-9,1.32

Structure (SMILES),% Inhibition [%],Z score
O=C(NCc1cccc(N2CCCC2)c1)[C@H]1CCC(=O)N(C2CCCCCC2)C1,-12,1.38
COCc1ccc(C2CCCN2Cc2ncc(C(C)O)s2)o1 (stereo not drawn),-1,0.09
Cc1ccsc1CN(C)C(=O)c1ccc(-n2cnnc2)nc1,6,-0.85
CCC(=O)N(CC)Cc1nn(-c2ccccc2)c2c1CN(Cc1cc(F)ccc1F)CC2,-9,0.98
Cc1c(NC(=O)N2CCC[C@H](CO)C2)cccc1-c1nncn1C,-13,1.88
Cc1cc(S(=O)(=O)NC2CCCCC2)c(C)s1,6,-0.8
O=C(Nc1cc(-c2ccccc2)ns1)C1CCC1,10,-1.15
C[C@@H]1CN(c2ccc(Cl)c(C(=O)O)n2)C[C@]1(C)O,-6,1.22
COc1ccc(Cn2c(=O)c3ccnn3c3ccc(C(=O)NC4CCN(C)CC4)cc32)cc1,22,-2.4
CC(C)(C)c1nc(CN2C(=O)NC3(CCCCC3)C2=O)no1,1,-0.21
O=C(NCC1CCOCC1)c1ccc2c(c1)OCO2,-4,0.68
O=C(Nc1nccs1)c1cnc(-c2cccnc2)s1,-1,0.14
CC(C)c1nnc(CN(C(C)C)C2CCOCC2)o1,-7,0.74
C[C@@H](CNS(=O)(=O)C1CC1)N1CCCCC1=O,-9,1.23
Cc1cc(C)n([C@@H](C)CNC(=O)Cn2cccnc2=O)n1,-6,1.19
CC(C)Oc1ccc(CNc2nc3ccncc3n(C(C)C)c2=O)cc1,-12,1.15
COc1ccc(-c2nc3c([nH]2)CCN(C(=O)c2cc(C)on2)C3)cn1,-2,0.46
O=C(Cc1ccc(Cl)cc1)Nc1nnn[nH]1,13,-1.61
CC(C)c1nccc(NCC(=O)OC2CCCCC2)n1,-6,0.77
Cc1oc(-c2ccoc2)nc1CN(CC1CC1)C[C@H]1CCCO1,12,-1.55
Cc1ccccc1C(CC(=O)NCC(C)C)c1cnc2n1C(C)CCC2 (stereo not drawn),4,-0.59
CCN(CCO)C(=O)CCCC1CCCCC1,8,-0.8
O=C(NCCOC1CCCC1)N[C@H]1CCCc2ccc(F)cc21,-7,1.04
COC1CCCC(c2nc(-c3cnc(C)nc3N)no2)C1 (stereo not drawn),-9,1.44
Cc1cn2nc(-c3nc([C@H]4CCCN(C(=O)c5cccc(Cl)c5)C4)no3)cc2c(=O)[nH]1,10,-1.87
CCN1C(=O)Cc2cc(NC(=O)[C@@H]3CCCO3)ccc21,-14,1.56
C[C@@H](CCCC(C)(C)O)Nc1nc(-c2ccccn2)nc2c1cnn2C,-7,1.41
